B1: SEQID-00103: nutritive polypeptide naturally produced in Rice, recombinantly expressed in E. coli (protein, listed as Oryza sativa)
chain: MEGLTSEQMVAFQEAFLLFDKNGDGCITLEELAAVTRSLGLEPTDQELNDMMREVDTDGNGIIDFQEFLSLIARKMKDGDGDEELKEAFEVLDKDQNGFISPTELRTVMTNLGEKMTDEEVEQMIREADTDGDGQVNYDEFVIMMKNAERKISG
B2: SEQID-00582: protein of the 168 nutritive polypeptide library (protein, listed as Agaricus bisporus)
chain: MQPKAAASKTPAVKHKFVIDYSKPAADGVFDGADFEKFLHDRIKVEGKAGQLGDHVKITRDGNTKITVTSNIPFSKRYLKYLTKKFLKKNTLRDWIRVVASSKDNYQLRFYNIA
modifications: source: /note="var. bisporus"; source: /note="strain H97 / ATCC MYA-4626 / FGSC 10389"
notes: protein of the 168 nutritive polypeptide library
B3: SEQID-00583: protein of the 168 nutritive polypeptide library (protein)
chain: MAPPQPKSGLFVGINKGHVVTKRELPLRPSHRKGKATKRVSMVRGLIREVAGFAPYEKRITELLKVGKDKRALKLAKRKLGTHKRAKKKREEMMGVLRKMRSAGTHTDKKK
modifications: Zea mays
notes: as for B2
B4: SEQID-00631: protein of the 168 nutritive polypeptide library (protein, listed as Lactobacillus acidophilus)
chain: MARIAGVDLPRDKRIVVALTYIYGIGDTTAKKICADAGVSEDVRSKDLTPEDQEKLRAEVDKYRVEGDLRREVSMNIKRLVDIGSYRGIRHRRGLPVRGQNTKNNARTRKGTKRNR
modifications: source: /note="strain 30SC"
notes: as for B2
B5: SEQID-00639: protein of the 168 nutritive polypeptide library (protein, listed as Saccharomyces cerevisiae)
chain: MAKRTKKVGITGKYGVRYGSSLRRQVKKLEIQQHARYDCSFCGKKTVKRGAAGIWTCSCCKKTVAGGAYTVSTAAAATVRSTIRRLREMVEA
modifications: source: /note="strain ATCC 204508 / S288c"
notes: as for B2

What was measured:
[1] = tested on: Pancreatin; assay type: in vitro ADME, Porcine
Procedure: Control samples were protease-free.
Analyses were performed using an Agilent 1100 series system.

[2] = Thermostability, temperature of aggregation (ProteoStat Thermal Shift); assay type: physicochemical; parameters: key: temperature in °C
Procedure: The thermostability of proteins in a buffer cocktail of Citric Acid and Dibasic Sodium Phosphate over a pH range of 2.8 to 7.1 (preparation described above in Table E31B) was determined using the ProteoStat® Thermal Shift Stability Kit (Enzo Life Sciences) according to the manufacturer's standard protocol. Briefly, protein solutions (˜10 mg/ml) containing 1× ProteoStat TS Detection Reagent were heated from 25° C. to 95° C. at a rate of 0.5° C. per 30 sec using a real-time PCR (rtPCR) thermocycler (BioRad) equipped with a plate reader (SynergyMx, Biotek) while monitoring the fluorescence with a Texas Red filter.

[3] = SGF digest of 168 nutritive polypeptide library, intact protein by LC-MS/MS; assay type: in vitro ADME; conditions: 168 nutritive polypeptide library SGF digest, LC-MS/MS spectral counts
Procedure: The in vitro intact half-life of multiple polypeptides in a complex mixture was determined using the simulated gastric in vitro digestion described above. Briefly, the 168 nutritive polypeptide library was generated as described herein by cloning, transforming, and expressing a gene library encoding 168 proteins as a single mixture. The recombinantly expressed proteins were purified from host cell proteins by IMAC purification as described herein.
The 168 Protein Library was treated with SGF as described above and the t=0 and t=10 min samples were analyzed for intact protein by LC-MS/MS. To begin, 10 μg of sample was loaded onto a 10% SDS-PAGE gel (Invitrogen) and run approximately 5 cm into the gel. The gel was excised into ten fractions from 100 kD to the dye front and the gel slices were processed by washing with 25 mM ammonium bicarbonate, followed by acetonitrile. Gel fractions were then reduced with 10 mM dithiothreitol at 60° C., followed by alkylation with 50 mM iodoacetamide at room temperature. Finally, the samples were digested with trypsin (Promega) at 37° C. for 4 h and the digestions were quenched with the addition of formic acid. The samples were then analyzed by nano LC/MS/MS using an EasynLC 1000 HPLC system interfaced to a ThermoFisher Q Exactive. Peptides were loaded on a trapping column and eluted over a 75 μm analytical column at 350 nL/min; both columns were packed with PepMap C18 3 μm resin (ThemoFisher). A 1 hour gradient was employed. The mass spectrometer was operated in data-dependent mode, with MS and MS/MS performed in the Orbitrap at 70,000 FWHM resolution and 17,500 FWHM resolution, respectively. The fifteen most abundant ions were selected for MS/MS. Data were searched against an appropriate database using Mascot to identify peptides. Mascot DAT files were parsed into the Scaffold software for validation, filtering and to create a nonredundant list per sample. Data were filtered at 1% protein and peptide false discovery rate (FDR) and requiring at least two unique peptides per protein. A full list of detected proteins and their spectral counts (SpC) was generated and reported as a function of each collected gel fraction. SpC are a count of the number of spectra identified for a given protein and are used as a measure of relative protein abundance (Liu, H. et al., Analytical Chemistry 2004, 76: 4193-4201). To calculate the percentage of intact protein remaining at the 10 min time point of the SGF digest the number of SpC representative of intact peptide in the t=10 min sample were divided by the number of SpC representative of intact peptide in the t=0 min sample. […]

Row | Molecule | Free Leu (μM) at 120 min time point of Pancreatin digest [1] [µM] | Tagg ([2]; pH 3.7) | Tagg ([2]; pH 3.9) | % Intact Protein at 10 min [3] [%]
1 | B1 | 793.8 | 45.5 | 41.5 | –
2 | B2 | – | – | – | 15.2
3 | B3 | – | – | – | 0
4 | B4 | – | – | – | 17.1
5 | B5 | – | – | – | 0

Reference: patent US20160228506A1, “Compositions and Formulations for Prevention and Reduction of Tumorigenesis, Cancer Cell Proliferation and Invasion, and Methods of Production and Use Thereof in Cancer Treatment” (PRONUTRIA, INC., priority 2013, published 2016)
